# According to PubChem BioAssay AID1345082 (National Center for Advancing Translational Sciences (NCATS), 2018):
# Screen size: about 94,000 compounds; about 4,000 (4.3%) were called active. This list was built around the results that the source calls inconclusive (neither active nor inactive); the mix of calls is not that of the screen. Calls follow the shape of the dose curve; as a rule, active = well fitted inhibition curve with a large enough effect; inconclusive = small, poorly fitted or top-dose-only effect; inactive = no such curve, though single readings can be large or run the other way. A potency beside an inconclusive call is a rough fit, not a confirmed value.
# Test: Cytotoxic Profiling in NIH 3T3 Cell Line of Diverse Libraries Using Quantitative High-Throughput Screening; also: nearly all actives have a fitted effect of over 55% in size
# Conditions: NIH 3T3 viability, CellTiter-Glo ATP luminescence, 48-72 h; activity change, negative = cytotoxicity: at 96.7 µM (top of the series); series mostly up to 96.7 µM
# In short: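 ATP-dependent luminescence (CellTiter-Glo) served as the viability signal for NIH 3T3 cells treated with compound for 48 or 72 hr at 37 °C.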
# % is scaled to controls: 0 for no effect and ±100 for the full control effect; potency is read from the fitted curve at half-maximal effect; tags tell the direction and shape of the fitted curve.
SMILES,Potency,"activity change, negative = cytotoxicity"
O=C(NCCc1cccs1)C1CCCN(c2cnn(Cc3ccccc3)c(=O)c2)C1 (stereo not drawn),"inconclusive: 50.1 µM [inhibitor, partial curve, poor fit]",–
COc1ccc(C(=O)N2CCC3(C2)C(=NC2CCCCC2)NC(=O)N3c2cc(F)cc(F)c2)cc1 (stereo not drawn),"inconclusive: 50.1 µM [inhibitor, partial curve, poor fit]",–
O=C(c1cc(F)cc(F)c1)N1C[C@@H](CO)[C@H](c2ccncc2)C1,–,inactive: -11.7%
CC(=O)N1CCC(Oc2ccc(Cl)cc2C(=O)NCCC2=CCCCC2)CC1,"inconclusive: 44.7 µM [inhibitor, partial curve, poor fit]",–
COc1ccccc1-c1cc(C(=O)NCCc2ccc(Cl)cc2)nc2c1cnn2C,"inconclusive: 70.8 µM [inhibitor, single point]",–
Cn1c(=O)c2ccnn2c2ccc(C(=O)NCC3CCN(Cc4cccc(F)c4)CC3)cc21,"inconclusive: 39.8 µM [inhibitor, partial curve, poor fit]",–
COc1ccc(CNC(=O)N2c3ccccc3CC2c2nc(C(C)C)no2)cc1 (stereo not drawn),"inconclusive: 44.7 µM [inhibitor, partial curve, poor fit]",–
C[C@]1(CO)[C@H]2Cc3sc(-c4ccsc4)nc3[C@@H](CC(=O)NCc3ccco3)[C@]2(C)CC[C@H]1O,"inconclusive: 50.1 µM [inhibitor, partial curve, poor fit]",–
Cc1cccc(C(=O)N2CCCC(c3nn(-c4ccc(F)cc4)c(=O)[nH]3)C2)c1 (stereo not drawn),"inconclusive: 44.7 µM [inhibitor, partial curve, poor fit]",–
Cc1ccc(-c2cccc(CN3CCN(c4ccc(Cl)nn4)C(=O)C3)c2)c(C)c1,"inconclusive: 44.7 µM [inhibitor, partial curve, poor fit]",–
OC(c1nc(Nc2ccc(Cl)c(C(F)(F)F)c2)n[nH]1)C1CC1 (stereo not drawn),active: 50.1 µM,–
COc1cc(NC(=O)c2ccc3c(c2)N(C)C2CCCCN2C3=O)cc(OC)c1OC (stereo not drawn),active: 31.6 µM,–
O=C(Nc1cccc(Cl)c1)c1cnc2c(c1)N(Cc1ccccc1)CCC2,"inconclusive: 56.2 µM [inhibitor, partial curve, poor fit]",–
Fc1ccc(Cc2nc3nccc(-c4ccncc4)n3n2)cc1,–,inactive: -13.1%
COCCN1C(=O)CS(=O)(=O)C12CCN(C(=O)Cc1cccc(OC)c1)CC2,–,inactive: -12.3%
CSc1ccc(-c2cccc(C(=O)NCCNC(=O)c3ccc(F)cc3)c2)cc1,"inconclusive: 39.8 µM [inhibitor, partial curve, poor fit]",–
O=C(c1ccc2ncccc2c1)N1CCCN(c2cc(-c3ccc(Cl)cc3)[nH]n2)CC1,"inconclusive: 35.5 µM [inhibitor, partial curve, poor fit]",–
Cc1ccc(-c2cnc([C@@H]3COCCN3Cc3ccncc3)[nH]2)cc1,–,inactive: 1.98% [at 174 µM]
N#Cc1ccc(CN2CC(Oc3ccc(F)c(F)c3)C2)cc1,"inconclusive: 70.8 µM [inhibitor, partial curve, poor fit]",–
COc1ccc(-c2cc(C(=O)NCC3CC3)c3c(C4CCCN4)noc3n2)cc1 (stereo not drawn),"inconclusive: 70.8 µM [inhibitor, single point]",–
CS(=O)(=O)N1CCCN(Cc2cn[nH]c2C(=O)O)CC1,–,inactive: 3.28%

SMILES,Potency,"activity change, negative = cytotoxicity"
O=C1CCN(C(=O)c2cccnc2)CCCC(C(=O)NCCCc2ccccc2)CCN1 (stereo not drawn),–,inactive: 0.957%
Cc1nc([C@H]2CCN(Cc3ccc(C)c(C)c3)C[C@H]2NC(=O)C2CC2)n[nH]1,"inconclusive: 44.7 µM [inhibitor, partial curve, poor fit]",–
COc1ccc(-c2cc(C(=O)NCC(F)(F)F)c3c(C4CCNC4)nn(C)c3n2)cc1 (stereo not drawn),"inconclusive: 44.7 µM [inhibitor, partial curve, poor fit]",–
CS(=O)(=O)N1CCN(c2ccc3nnc(-c4ccccc4)n3n2)CC1,"inconclusive: 70.8 µM [inhibitor, partial curve, poor fit]",–
Cc1csc(NC(=O)C2(C)COCc3cnc(Nc4ccccc4)nc32)n1 (stereo not drawn),"inconclusive: 56.2 µM [inhibitor, partial curve, poor fit]",–
Cc1ccccc1Cn1cc(-c2ccncc2)cc1C(=O)NC1CC1,"inconclusive: 44.7 µM [inhibitor, partial curve]",–
COc1cccc([S+](=O)([O-])N2CCCC3(CC(c4ccccc4)=NO3)C2)c1 (stereo not drawn),–,inactive: -14.2%
Cc1ccc(CC(=O)NC2CCN(c3cc(-c4cccs4)[nH]n3)C2)cc1 (stereo not drawn),"inconclusive: 35.5 µM [inhibitor, partial curve, poor fit]",–
CCn1ccc(C(=O)N2CCCC(Cn3c(C)cnc3C3CC3)C2)n1 (stereo not drawn),–,inactive: -8.05%
O=C(CCC1CCCC1)N1CCC2(CC1)CC(N(Cc1ccccc1)C1CC1)CCO2 (stereo not drawn),"inconclusive: 50.1 µM [inhibitor, partial curve, poor fit]",–
COc1ccc(N2CCN(C(=O)Cn3cccc3-c3nc(-c4ccc5c(c4)OCO5)no3)CC2)cc1,–,inactive: 0.0248%
CCN1C[C@H]2COc3ccccc3[C@H]2N(C(=O)c2ccccc2OC)CCC1=O,"inconclusive: 79.4 µM [inhibitor, single point]",–
O=C1CC2(CCN([S+](=O)([O-])c3cccc(C(F)(F)F)c3)CC2)Oc2ccccc21,"inconclusive: 50.1 µM [inhibitor, single point]",–
COc1ccc(-c2cc(N3CCN(C(=O)c4ccccc4F)CC3)n[nH]2)cc1,"inconclusive: 44.7 µM [inhibitor, partial curve, poor fit]",–
O=C(Nc1cccc(Br)c1)N1CCC2(CC1)SCC(=O)N2Cc1ccco1,active: 15.8 µM,–
CN1CCN(c2ccc(-c3cc4c(ccn4C)c(C(=O)NCC4CCOCC4)n3)cc2)CC1,active: 20 µM,–
COc1cccc([S+](=O)([O-])N2CCC3(CC2)CC(=O)c2ccccc2O3)c1,"inconclusive: 50.1 µM [inhibitor, partial curve, poor fit]",–
c1ccc(-c2nnc3n2CCN(CC2CC2)C3)cc1,"inconclusive: 100 µM [inhibitor, partial curve]",–
Cc1nn(-c2ccccn2)c(C)c1[C@@H]1C=C[C@@H](NC(=O)CSCC(=O)O)C1,"inconclusive: 126 µM [inhibitor, single point]",–
Cc1nn2c(c1-c1ccccc1Oc1ccccc1)N(CC1CC1)CCC2,active: 31.6 µM,–
Cn1ncc2c(C(=O)NCc3ccc(Cl)cc3)cc(-c3ccc(F)cc3)nc21,"inconclusive: 44.7 µM [inhibitor, partial curve, poor fit]",–

SMILES,Potency,"activity change, negative = cytotoxicity"
CCOc1cc(=O)n2c(c1C(=O)Nc1ccccc1F)CCCC2,"inconclusive: 70.8 µM [inhibitor, single point]",–
CC(C)CNC(=O)N1CCC(CCOc2ccc(F)cc2)C1 (stereo not drawn),"inconclusive: 39.8 µM [inhibitor, partial curve, poor fit]",–
CNC(=O)CCn1ncc2cc(OC3CCc4cccc(-c5cccc(CO)c5)c43)ccc21 (stereo not drawn),"inconclusive: 56.2 µM [inhibitor, partial curve, poor fit]",–
Cn1ncc2c(C(=O)NCCCNC(=O)OC(C)(C)C)cc(-c3ccccc3C(F)(F)F)nc21,"inconclusive: 50.1 µM [inhibitor, single point]",–
Cc1noc(C)c1Cc1ccc(C(=O)N2CCC(C)(c3noc(-c4cccnc4)n3)CC2)o1,active: 31.6 µM,–
C[S+](=O)([O-])N1CCC(c2nnc3n2C(C(=O)NCCc2ccc(Cl)cc2)CC3)CC1 (stereo not drawn),–,inactive: -13.6%
Cc1noc(C)c1CC(=O)N1CCC(CCOc2ccccc2F)C1 (stereo not drawn),"inconclusive: 44.7 µM [inhibitor, partial curve, poor fit]",–
Cc1ccccc1-n1ncc(C(C)NC(=O)c2cc(F)ccc2F)c1C (stereo not drawn),"inconclusive: 14.1 µM [inhibitor, partial curve, poor fit]",–
CN1CCC(N2CCC(N3C(=O)C4(CCCCC4)C3c3ccncc3)CC2)CC1 (stereo not drawn),–,inactive: -13.1%
CC(Cn1ccc2ccccc21)NC1CCN(c2ccc(C(=O)N(C)C)cc2)CC1 (stereo not drawn),–,inactive: -5.45%
O=C(NCCN[S+](=O)([O-])c1ccccc1)c1cccc(-c2ccc(C(F)(F)F)cc2)c1,active: 22.4 µM,–
O=C(c1nnn2cc(-c3ccccc3)[nH]c(=O)c12)N1CCN(C2CCCCC2)CC1,–,inactive: -0.0376%
CC1(COc2ccccc2)COc2ccc(C(=O)NCc3ccco3)cc2N1 (stereo not drawn),"inconclusive: 50.1 µM [inhibitor, partial curve]",–
COc1cccc(CNC(=O)c2ccc3nc(-c4cccc(C)n4)oc3c2)c1,"inconclusive: 35.5 µM [inhibitor, partial curve, poor fit]",–
O=C(CCC1CCCN(S(=O)(=O)c2cccc(F)c2)C1)Nc1ccc(F)cc1 (stereo not drawn),"inconclusive: 44.7 µM [inhibitor, partial curve, poor fit]",–
O=C(Cc1cccc(Cl)c1)N[C@@H]1CN(c2ncccn2)C[C@H]1CO,–,inactive: -14.4%
COc1ccc(-c2ccc3c(n2)CN(Cc2ccccc2F)C(=O)CO3)cc1OC,active: 25.1 µM,–
O=C1N(CC2CCOCC2)CCOC12CCN([S+](=O)([O-])c1ccccc1)CC2,"inconclusive: 89.1 µM [inhibitor, single point]",–
CN(Cc1cccnc1)Cc1ccccc1C(F)(F)F,–,inactive: -3.82% [at 138 µM]
CC(C)c1ccc(CN2C[C@@H]3C(=O)N(Cc4ccc5c(c4)OCO5)C(=O)[C@@H]3C2)cc1,"inconclusive: 44.7 µM [inhibitor, partial curve, poor fit]",–
N#Cc1ccc(S(=O)(=O)N2CCCCCCNC(=O)[C@@H]3CCC[C@@H]32)cc1,"inconclusive: 50.1 µM [inhibitor, partial curve, poor fit]",–
